Measured values as given in paper PMC5048754.
Results are given in words; binding and its absence hold for the method and conditions named. In cells and extracts the contact can be indirect. Some entries that bind do so weakly or less than the wild type.

The chains behind the UniProt entries cited, without tags or fusion partners. Where a name states a change or a piece, a line headed by the entry shows the natural chain unless it says otherwise. A line that says so, or that is headed by a name, gives the form on record, which may keep a tag or linker. Residues count along the entry.
UniProt Q15691: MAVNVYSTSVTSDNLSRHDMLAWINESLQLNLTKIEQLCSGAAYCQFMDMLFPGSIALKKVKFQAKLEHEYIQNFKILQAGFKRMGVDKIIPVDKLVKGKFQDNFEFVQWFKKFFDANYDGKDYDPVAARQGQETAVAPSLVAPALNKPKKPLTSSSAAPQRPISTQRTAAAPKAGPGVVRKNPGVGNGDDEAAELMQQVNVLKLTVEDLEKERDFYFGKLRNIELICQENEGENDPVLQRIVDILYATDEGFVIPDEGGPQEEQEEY
GST-tagged calponin-homology (CH) domain of EB1 (1-115): residues 1-115 of Q15691
GST-tagged EB-homology domain (EBH) of EB1 (209-268): residues 209-268 of Q15691

Experiments:
[1] = target: endogenous apoptosis signal-regulating kinase 1 (ASK1) (human (endogenous in 293 T)) (UniProt Q99683); assay: co-IP; lysates of 293 T cells (transfected with HA-ASK1, GFP-EB1 or Flag-EB1, or untransfected), antibody-coated agarose beads, 4 °C for 2 h, immunoblotting
[2] = target: HA-tagged C-terminal region of ASK1 (941-1374) (UniProt Q99683); assay: co-IP; cells transfected with Flag-EB1 and different forms of ASK1 tagged with HA; immunoblotting (Figure 4g)
[3] = target: HA-tagged kinase domain of ASK1 (649-940) (UniProt Q99683); assay: as above
[4] = target: GST-tagged EB-homology domain (EBH) of EB1 (209-268) (UniProt Q15691); assay: pull-down; GST pulldown from cells (293 T named for Figure 4h) transfected with GST-tagged forms of EB1 and HA-ASK1 or ASK1 domains, glutathione-coated agarose beads, 4 °C for 2 h, immunoblotting
[5] = target: GST-tagged calponin-homology (CH) domain of EB1 (1-115) (UniProt Q15691); assay: as above
[6] = target: HA-tagged apoptosis signal-regulating kinase 1 (HA-ASK1) (UniProt Q99683); assay: co-IP; lysates of 293 T cells (transfected with HA-ASK1, GFP-EB1 or Flag-EB1, or untransfected), antibody-coated agarose beads, 4 °C for 2 h, immunoblotting

| binding [1] | binding [6] | Substance | other results |
| --- | --- | --- | --- |
| binds |  | Flag-EB1 (from UniProt Q15691 1-268) | binding [2]: binds; binding [3]: binds |
| binds |  | GFP-EB1 (from UniProt Q15691 1-268) |  |
|  |  | HA-tagged C-terminal region of ASK1 (941-1374) (from UniProt Q99683 941-1374) (domain or fragment) | binding [4]: binds weakly |
|  |  | HA-tagged kinase domain of ASK1 (649-940) (from UniProt Q99683 649-940) (domain or fragment) | binding [5]: binds |
| binds | binds | endogenous end-binding protein 1 (EB1) (from UniProt Q15691 1-268) |  |
|  | no binding | p150^glued (from UniProt Q14203-1 1-1278) |  |
